{
  "source": "paper PMC5892938",
  "note": "The list shows a part of the results. At the low end of the ranking, values are background and their order means little.",
  "data": [
    {"target": "GST-SBP-SLBP (stem-loop binding protein) (UniProt Q14493)", "assay": "targeted RNA Bind-n-Seq;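 further: DESeq read counts versus GST-SBP nonspecific binding control pulldown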", "details": "RBNS binding buffer: 25 mM Tris pH 7.5, 150 mM KCl, 3 mM MgCl2, 0.1% Tween, 0.5 mg/mL BSA, 1 mM DTT; 27 nM protein, 750 pM RNA pool; temperature not stated; high values mean tight binding", "values": [
      {"sequence": "GGUCACGUCUCAAUCAACUCCCUAGAGGGGGGGAAAACCCCUUUGCCCUCAUAAUCAACAGCUCGCAGUCAAG", "binding signal (log2 fold change)": -0.291},
      {"sequence": "GGUCACGUCUCAAUCAACUCAAUUUCCAGGGAAACCCCUGGUUAACUCAACAGCUCGCAGUCAAG", "binding signal (log2 fold change)": -0.33},
      {"sequence": "GGUCACGUCUCAAUCAACUCCUUAGAGGGGGGGAAAACCCCUUUGCCCUCGUUUUCAACAGCUCGCAGUCAAG", "binding signal (log2 fold change)": 0.342},
      {"sequence": "GGUCACGUCUCAAUCAACUCAUUCUCAGGAGUUUGCUCCUGUAUUUUCAACAGCUCGCAGUCAAG", "binding signal (log2 fold change)": 0.0813},
      {"sequence": "GGUCACGUCUCAAUCAACUCAUCCCCAGGAGUUUUCUCCUGUUUACUCAACAGCUCGCAGUCAAG", "binding signal (log2 fold change)": 0.0867},
      {"sequence": "GGUCACGUCUCAAUCAACUCAAUUCCAGGAGUUUACUCCUGCUAACUCAACAGCUCGCAGUCAAG", "binding signal (log2 fold change)": 0.106},
      {"sequence": "GGUCACGUCUCAAUCAACUCUACUCCCAGGGAAAACCCUGGCAAAUUCAACAGCUCGCAGUCAAG", "binding signal (log2 fold change)": 0.0986},
      {"sequence": "GGUCACGUCUCAAUCAACUCUUCCCCAGGAGUUUCCUCCUGUAAUCUCAACAGCUCGCAGUCAAG", "binding signal (log2 fold change)": 0.0344},
      {"sequence": "GGUCACGUCUCAAUCAACUCUAGUCCCAGGGAAAUCCCUGGCAAAUUCAACAGCUCGCAGUCAAG", "binding signal (log2 fold change)": -0.0255},
      {"sequence": "GGUCACGUCUCAAUCAACUCAUCCUCCAGGGAAAGCCCUGGUAUUUUCAACAGCUCGCAGUCAAG", "binding signal (log2 fold change)": 0.225},
      {"sequence": "GGUCACGUCUCAAUCAACUCCCUGGAGGGGGGGAAAACCCCUUUACCCUCAUUUUCAACAGCUCGCAGUCAAG", "binding signal (log2 fold change)": -0.503},
      {"sequence": "GGUCACGUCUCAAUCAACUCUUCUCCAGGAGUUUUCUCCUGUAUAUUCAACAGCUCGCAGUCAAG", "binding signal (log2 fold change)": -0.142},
      {"sequence": "GGUCACGUCUCAAUCAACUCAUCUUCCAGGGAAACCCCUGGCUUUUUCAACAGCUCGCAGUCAAG", "binding signal (log2 fold change)": -0.104},
      {"sequence": "GGUCACGUCUCAAUCAACUCAACUUCCAGGGAAAACCCUGGCUUAUUCAACAGCUCGCAGUCAAG", "binding signal (log2 fold change)": -0.0263},
      {"sequence": "GGUCACGUCUCAAUCAACUCAAUUCCCAGGGAAAACCCUGGUUAUCUCAACAGCUCGCAGUCAAG", "binding signal (log2 fold change)": -0.123},
      {"sequence": "GGUCACGUCUCAAUCAACUCUAUUUCAGGAGUUUACUCCUGCAUUCUCAACAGCUCGCAGUCAAG", "binding signal (log2 fold change)": 0.111},
      {"sequence": "GGUCACGUCUCAAUCAACUCUUUUCCCAGGGAAAACCCUGGUUUACUCAACAGCUCGCAGUCAAG", "binding signal (log2 fold change)": 0.0481},
      {"sequence": "GGUCACGUCUCAAUCAACUCUUUAGAGGGGGGGAAAACCCCUUUACCCUCAUAUUCAACAGCUCGCAGUCAAG", "binding signal (log2 fold change)": -0.00288},
      {"sequence": "GGUCACGUCUCAAUCAACUCAUCGUCCAGGGAAAACCCUGGUAUUUUCAACAGCUCGCAGUCAAG", "binding signal (log2 fold change)": -0.0125},
      {"sequence": "GGUCACGUCUCAAUCAACUCAUACGAGGGGGGGAAAACCCCUUUACCCUCUCAAUCAACAGCUCGCAGUCAAG", "binding signal (log2 fold change)": -0.101},
      {"sequence": "GGUCACGUCUCAAUCAACUCCAUAGAGGGGGGGAAAACCCCUUUGCCCUCACUAUCAACAGCUCGCAGUCAAG", "binding signal (log2 fold change)": -0.101},
      {"sequence": "GGUCACGUCUCAAUCAACUCUUCCUCAGGAGUUUACUCCUGUAUUCUCAACAGCUCGCAGUCAAG", "binding signal (log2 fold change)": 0.131},
      {"sequence": "GGUCACGUCUCAAUCAACUCUUAGGAGGGGGGGAAAACCCCUUUACCCUCAACCUCAACAGCUCGCAGUCAAG", "binding signal (log2 fold change)": -0.326},
      {"sequence": "GGUCACGUCUCAAUCAACUCAACUCCCAGGGAAAGCCCUGGCUUACUCAACAGCUCGCAGUCAAG", "binding signal (log2 fold change)": -0.168},
      {"sequence": "GGUCACGUCUCAAUCAACUCUAUUUCCAGGGAAAGCCCUGGUUAACUCAACAGCUCGCAGUCAAG", "binding signal (log2 fold change)": 0.269},
      {"sequence": "GGUCACGUCUCAAUCAACUCUUCCUCCAGGGAAACCCCUGGUUAACUCAACAGCUCGCAGUCAAG", "binding signal (log2 fold change)": 0.443},
      {"sequence": "GGUCACGUCUCAAUCAACUCUUCCUCCAGGGAAACCCCUGGCAAACUCAACAGCUCGCAGUCAAG", "binding signal (log2 fold change)": 0.0958},
      {"sequence": "GGUCACGUCUCAAUCAACUCUUCUUCCAGGGAAAGCCCUGGUUAUGUCAACAGCUCGCAGUCAAG", "binding signal (log2 fold change)": -0.186},
      {"sequence": "GGUCACGUCUCAAUCAACUCAUCCCCAGGAGUUUUCUCCUGUAUUUUCAACAGCUCGCAGUCAAG", "binding signal (log2 fold change)": -0.0579},
      {"sequence": "GGUCACGUCUCAAUCAACUCAUCCCCAGGAGUUUCCUCCUGCAAUUUCAACAGCUCGCAGUCAAG", "binding signal (log2 fold change)": -0.0196},
      {"sequence": "GGUCACGUCUCAAUCAACUCUAUUUCCAGGGAAACCCCUGGUUAAUUCAACAGCUCGCAGUCAAG", "binding signal (log2 fold change)": 0.0432},
      {"sequence": "GGUCACGUCUCAAUCAACUCUUUCCCCAGGGAAACCCCUGGUAAAUUCAACAGCUCGCAGUCAAG", "binding signal (log2 fold change)": 0.0137},
      {"sequence": "GGUCACGUCUCAAUCAACUCAAUCCCAGGAGUUUUCUCCUGUUUAUUCAACAGCUCGCAGUCAAG", "binding signal (log2 fold change)": -0.116},
      {"sequence": "GGUCACGUCUCAAUCAACUCAUUUUCCAGGGAAAACCCUGGUUUUUUCAACAGCUCGCAGUCAAG", "binding signal (log2 fold change)": -0.131},
      {"sequence": "GGUCACGUCUCAAUCAACUCUUUCUCAGGAGUUUCCUCCUGUUUACUCAACAGCUCGCAGUCAAG", "binding signal (log2 fold change)": 0.312},
      {"sequence": "GGUCACGUCUCAAUCAACUCAUCGCCCAGGGAAAGCCCUGGUUUAUUCAACAGCUCGCAGUCAAG", "binding signal (log2 fold change)": -0.0252},
      {"sequence": "GGUCACGUCUCAAUCAACUCUCAAGAGGGGGGGAAAACCCCUUUGCCCUCAACCUCAACAGCUCGCAGUCAAG", "binding signal (log2 fold change)": -0.0326}
    ]}
  ]
}
